T1: UNK ZnF1-6 (called full-length) (human, UniProt Q9C0B0 30-357)
T1 sequence: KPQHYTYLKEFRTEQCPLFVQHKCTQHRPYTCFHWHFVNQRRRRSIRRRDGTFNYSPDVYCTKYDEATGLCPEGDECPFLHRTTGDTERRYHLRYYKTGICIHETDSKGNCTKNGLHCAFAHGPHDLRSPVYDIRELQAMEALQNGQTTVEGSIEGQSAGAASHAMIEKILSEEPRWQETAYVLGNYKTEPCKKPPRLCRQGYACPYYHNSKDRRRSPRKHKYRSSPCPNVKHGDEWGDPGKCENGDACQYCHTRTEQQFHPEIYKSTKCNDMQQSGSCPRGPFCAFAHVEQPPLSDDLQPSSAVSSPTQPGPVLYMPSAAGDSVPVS

B1: chr5:160402147:160402258:-|3pUTR|ENSG00000164609|unk|total|mutant (ssRNA)
RNA: GGGAGUUCUACAGUCCGACGAUCAUGGUUUACAUUACCGUUUGUUUUCAUUGUGAUUGCCCCUAUGUAACAAUCAUGAAUAUCCGAUUUUUUAAAUUGCCGAAUAUCCUAAUAUUUACCGCCAGCAGCUGUUACUUUGUUUGUCAACAGAGGAUUGAGCAUCA
B2: ENSG00000105355:stop:overlap|stop_codon|ENSG00000105355|stop_codon|NA|stop_codon (ssRNA)
RNA: GGGAGUUCUACAGUCCGACGAUCCGUGGCUCGUGGGACCCUUUGCCCCUGGAAUCACUGAGAAAGCCCCGGAGGAGAAGAAGUAGGGGGAGAGGAGAGGACUCAGCGGGCCCCGUCUCUAUAAUGCAGCUGUGCUCUGGAGUCCAACAGAGGAUUGAGCAUCA
B3: ENSG00000143799:stop:overlap|stop_codon|ENSG00000143799|stop_codon|NA|stop_codon (ssRNA)
RNA: GGGAGUUCUACAGUCCGACGAUCACCAGCAGAAAGUCAAGAAGACAGCGGAAGCUGGAGGAGUGACAGAAAAGAAGCUCUAUUAGCUGACCACGGUUGUUACAAACAGACAGAUGAGAUGGACCAAUCGUAGUCUCCCAAGGCCAACAGAGGAUUGAGCAUCA
B4: chr11:95166718:95166819:-|3pUTR|ENSG00000149212|unk|total|mutant (ssRNA)
RNA: GGGAGUUCUACAGUCCGACGAUCACAGUUUCCCCUUCCUCUUUCUCUUCACAUUUACUCUUUUCAACCCAAAAUAAGAGACACCGAAAGCAAACCACAGCCAGUUUGGCAUCUUCUCAGUGCUACCCGUACCGGCACAUACACCAACAGAGGAUUGAGCAUCA
B5: chr2:43888187:43888297:-|3pUTR|ENSG00000138095|unk|FALSE|unique (ssRNA)
RNA: GGGAGUUCUACAGUCCGACGAUCAAAAUGUUAUUCCUUUAUUUAAGAUUCACUUAUUAGUCUGCUGUUUCUCUGAAAAAUUUUAGAGCUAGGUAUAGUGACCGUGAACUUUCUAACGCAUAAUAUUCUGUGAUACAGCCAUUCCAACAGAGGAUUGAGCAUCA
B6: chr8:23842320:23842421:-|3pUTR|ENSG00000159167|msi1|FALSE|unique (ssRNA)
RNA: GGGAGUUCUACAGUCCGACGAUCUAUGUAUCUACAAUACAUAUAUCUACACAUACAGAAAGAAGCAGUUCUCACAAUGUUGCUAGUUUUUUGCUUCUCUUUCCCCCACCCUACUCCCUCCAAUUCCCCCUUAAACUUCCAAAGCAACAGAGGAUUGAGCAUCA

Some of the results follow.

For this assay, the target named is T1, UNK ZnF1-6 (called full-length). As to the kind of experiment: nsRBNS (natural sequence RNA bind-n-seq); RBNS binding buffer (assumed for nsRBNS): 25 mM Tris pH 7.5, 150 mM KCl, 3 mM MgCl2, 0.01% Triton X-100, 500 ug/ml BSA, 20 U/ml SUPERase-In, 4 C; UNK is unkempt and MSI1 is Musashi-1; names of the RNAs are library labels; protein concentration not given here; high values mean tight binding.
B1 returned a binding signal of 0.576 enrichment R.
The same measure for B2: 0.818 enrichment R; for B3: 0.582 enrichment R; for B4: 0.728 enrichment R.
With B5, the binding signal stood at 0.954 enrichment R.
Next, B6: 0.759 enrichment R.
